Laboratory results taken from patent publication US5449684A (priority 1993, dated 1995).

Test system: HSV (Herpes simplex virus)
Experiment: organism not typed
From the text: The antiviral activities of these compounds have also been determinated "in vitro" against HSV (Herpes simplex virus) and VSV (Vesicular stomatitis virus). The methodology used to carry out this determination is described by Raymond J. Bergeron et.al. Biochem. Bioph. Res. Comm. 1984, 121(3), 848-854 and by Alan C. Shroeder et al. J. Med. Chem. 1981, 24 1078-1083.

| Structure (SMILES) | IC50 |
| --- | --- |
| CC(C(=O)O)C1CCC(C)(CCC2(C)C(C)CCC3C(C)(C)CCCC32O)OO1 (centres unmarked) [Mycaperoxide A, mycaperoxide A] | > 1 mg/L |
| CC(C(=O)O)C1CCC(C)(CCC2(O)C(C)CCC3C(C)(C)CCCC32C)OO1 (centres unmarked) [Mycaperoxide B, mycaperoxide B] | > 1 mg/L |
